Results reported in the supplement of paper PMC8728848.
The list shows a part of the results.

Assays:
Test in all cases: glycan array binding signal (z-score within array); higher = stronger binding
Conditions in all cases: glycan notation: IUPAC condensed, linker removed
GalNAc(b1-3)Gal = molecular target: GalNAc(b1-3)Gal
How it was run: (§1)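 From the Consortium for Functional Glycomics database, 3228 arrays were curated, keeping only those whose protein sequence was available. Binding is given as a within-array Z-score averaged across arrays sharing a protein sequence and across linkers. Negative Z-scores can be read as non-binding.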

[1] = molecular target: GalNAc(b1-3)Gal(a1-4)Gal(b1-4)GlcNAc
How it was run: as §1

[2] = molecular target: GalNAc(b1-3)Gal(a1-4)Gal(b1-4)GlcNAc(b1-3)Gal(b1-4)Glc
How it was run: as §1

[3] = molecular target: GalNAc(b1-3)Gal(a1-6)Gal(b1-4)Glc
How it was run: as §1

GalNAc(b1-3)GalNAc = molecular target: GalNAc(b1-3)GalNAc
How it was run: as §1

GalNAc(b1-3)GlcNAc = molecular target: GalNAc(b1-3)GlcNAc
How it was run: as §1

GalNAc(b1-4)Gal(b1-4)Glc = molecular target: GalNAc(b1-4)Gal(b1-4)Glc
How it was run: as §1

GalNAc(b1-4)GlcNAc = molecular target: GalNAc(b1-4)GlcNAc
How it was run: as §1

[4] = molecular target: GalNAc(b1-4)GlcNAc(b1-2)Man
How it was run: as §1

[5] = molecular target: GalNAc(b1-4)GlcNAc(b1-2)Man(a1-3)[GalNAc(b1-4)GlcNAc(b1-2)Man(a1-6)]Man(b1-4)GlcNAc(b1-4)GlcNAc
How it was run: as §1

[6] = molecular target: GalNAc(b1-4)GlcNAc(b1-3)GalNAc(b1-4)GlcNAc
How it was run: as §1

GalNAc(b1-4)GlcNAc6S = molecular target: GalNAc(b1-4)GlcNAc6S
How it was run: as §1

GalNAc(b1-6)GalNAc = molecular target: GalNAc(b1-6)GalNAc
How it was run: as §1

GalNAc3S(b1-4)GlcNAc = molecular target: GalNAc3S(b1-4)GlcNAc
How it was run: as §1

GalNAc3S(b1-4)GlcNAc3S = molecular target: GalNAc3S(b1-4)GlcNAc3S
How it was run: as §1

[7] = molecular target: GalNAc3S(b1-4)[Fuc(a1-3)]GlcNAc
How it was run: as §1

GalNAc4S6S(b1-4)GlcNAc = molecular target: GalNAc4S6S(b1-4)GlcNAc
How it was run: as §1

GalNAc6S(b1-4)GlcNAc = molecular target: GalNAc6S(b1-4)GlcNAc
How it was run: as §1

Glc(a1-4)Glc = molecular target: Glc(a1-4)Glc
How it was run: as §1

[8] = molecular target: Glc(a1-4)Glc(a1-4)Glc(a1-4)Glc
How it was run: as §1

Glc(a1-6)Glc(a1-6)Glc = molecular target: Glc(a1-6)Glc(a1-6)Glc
How it was run: as §1

[9] = molecular target: Glc(a1-6)Glc(a1-6)Glc(a1-6)Glc
How it was run: as §1

Glc(b1-4)Glc = molecular target: Glc(b1-4)Glc
How it was run: as §1

Glc(b1-6)Glc = molecular target: Glc(b1-6)Glc
How it was run: as §1

GlcA(b1-3)Gal = molecular target: GlcA(b1-3)Gal
How it was run: as §1

GlcA(b1-3)GlcNAc = molecular target: GlcA(b1-3)GlcNAc
How it was run: as §1

GlcA(b1-6)Gal = molecular target: GlcA(b1-6)Gal
How it was run: as §1

[10] = molecular target: GlcA3S(b1-3)Gal(b1-4)GlcNAc(b1-2)Man
How it was run: as §1

[11] = molecular target: GlcA3S(b1-3)Gal(b1-4)GlcNAc(b1-3)Gal(b1-4)Glc
How it was run: as §1

[12] = molecular target: GlcNAc(a1-3)Gal(b1-4)GlcNAc
How it was run: as §1

[13] = molecular target: GlcNAc(a1-4)Gal(b1-3)GlcNAc
How it was run: as §1

[14] = molecular target: GlcNAc(a1-4)Gal(b1-4)GalNAc
How it was run: as §1

[15] = molecular target: GlcNAc(a1-4)Gal(b1-4)GlcNAc
How it was run: as §1

[16] = molecular target: GlcNAc(a1-4)Gal(b1-4)GlcNAc(b1-3)Gal(b1-4)Glc
How it was run: as §1

[17] = molecular target: GlcNAc(a1-4)Gal(b1-4)GlcNAc(b1-3)Gal(b1-4)GlcNAc
How it was run: as §1

[18] = molecular target: GlcNAc(a1-4)Gal(b1-4)GlcNAc(b1-3)Gal(b1-4)GlcNAc(b1-3)Gal(b1-4)GlcNAc
How it was run: as §1

[19] = molecular target: GlcNAc(a1-4)Gal(b1-4)GlcNAc(b1-3)Gal(b1-4)[Fuc(a1-3)]GlcNAc(b1-3)Gal(b1-4)[Fuc(a1-3)]GlcNAc
How it was run: as §1

[20] = molecular target: GlcNAc(a1-6)Gal(b1-4)GlcNAc
How it was run: as §1

B1: Tamarinin (protein)
chain: CDDSARAGNIVVYWGQGGSDNSEGSLKEACKSGHYNMIVLQQLIVYDDGRDPDLNLGAHCSDCTKLEEQIKYCQNKDIKILLQIGQVVPTQEDVKDVTKNLSEYLLKNFFSGKSGPLGEVYLNGIDIASVPEGNNLKFDELVEALNDSSTERRIYLSASPLCVYPDYYLNKAIQTEKLDFLFVQFFYQNPCIYTEGNPENLFEAMKTWTKNVPESMIFMALPATPNLDGYIPPRVLNKEILPAVSEASNFAGVMIFDRYFDRFRKYSSKIK
- glycan array binding signal (z-score) (GalNAc(b1-3)Gal): -0.225
- glycan array binding signal (z-score) [1]: -0.378
- glycan array binding signal (z-score) [2]: 0.245
- glycan array binding signal (z-score) [3]: -0.326
- glycan array binding signal (z-score) (GalNAc(b1-3)GalNAc): -0.342
- glycan array binding signal (z-score) (GalNAc(b1-3)GlcNAc): -0.214
- glycan array binding signal (z-score) (GalNAc(b1-4)Gal(b1-4)Glc): 1.94
- glycan array binding signal (z-score) (GalNAc(b1-4)GlcNAc): 0.335
- glycan array binding signal (z-score) [4]: -0.349
- glycan array binding signal (z-score) [5]: -0.233
- glycan array binding signal (z-score) [6]: 1.9
- glycan array binding signal (z-score) (GalNAc(b1-4)GlcNAc6S): 0.687
- glycan array binding signal (z-score) (GalNAc(b1-6)GalNAc): -0.131
- glycan array binding signal (z-score) (GalNAc3S(b1-4)GlcNAc): 2.59
- glycan array binding signal (z-score) (GalNAc3S(b1-4)GlcNAc3S): -0.245
- glycan array binding signal (z-score) [7]: -0.228
- glycan array binding signal (z-score) (GalNAc4S6S(b1-4)GlcNAc): -0.001
- glycan array binding signal (z-score) (GalNAc6S(b1-4)GlcNAc): 2.4
- glycan array binding signal (z-score) (Glc(a1-4)Glc): -0.187
- glycan array binding signal (z-score) [8]: -0.232
- glycan array binding signal (z-score) (Glc(a1-6)Glc(a1-6)Glc): -0.034
- glycan array binding signal (z-score) [9]: 0.415
- glycan array binding signal (z-score) (Glc(b1-4)Glc): -0.043
- glycan array binding signal (z-score) (Glc(b1-6)Glc): -0.074
- glycan array binding signal (z-score) (GlcA(b1-3)Gal): -0.029
- glycan array binding signal (z-score) (GlcA(b1-3)GlcNAc): 0.701
- glycan array binding signal (z-score) (GlcA(b1-6)Gal): 0.165
- glycan array binding signal (z-score) [10]: -0.362
- glycan array binding signal (z-score) [11]: 1.34
- glycan array binding signal (z-score) [12]: -0.318
- glycan array binding signal (z-score) [13]: -0.351
- glycan array binding signal (z-score) [14]: -0.193
- glycan array binding signal (z-score) [15]: -0.431
- glycan array binding signal (z-score) [16]: -0.182
- glycan array binding signal (z-score) [17]: -0.386
- glycan array binding signal (z-score) [18]: -0.44
- glycan array binding signal (z-score) [19]: 0.824
- glycan array binding signal (z-score) [20]: 0.193
